# Hit rate of the full screen: of about 150,000 compounds, about 540 (0.36%) showed an effect of 50% or more. The list shows a part of the results.
# Tested on: Plasmodium falciparum
# Test: Primary screen in NF54 nanoGlo assay, in single point, at 2uM, 72h; a lower Z score goes with more inhibition
# Assay type: functional, Erythrocyte
# Conditions: timepoint 72 hour
SMILES,% Inhibition [%],Z score
COc1ccc(Cl)cc1[C@H](C)NCc1nncn1C1CC1,-13,2.01
O=C(O)c1cnn2cc(CN3CCN(c4ccccc4F)CC3)cnc12,-13,1.6
O=C(COc1ccc(F)cc1)N1CC(OCc2ccc(F)cc2Cl)C1,-12,1.07
COc1ccc(C(=O)N(CC(=O)N(Cc2ccco2)C[C@H]2CCCO2)C(C)(C)C)cc1,-7,1.15
CCCc1nc(NCCc2cc(O)nc(C)n2)c2cnn(C)c2n1,-12,1.3
Cc1ccc(-c2noc(-c3c(N)sc4c3CC[C@H](C)C4)n2)cc1,-3,0.38
O=C(Nc1nc2c(s1)Cc1ccccc1-2)c1cc2ccccc2o1,-12,2.33
Cc1oc(-c2ccccc2)nc1Cn1c(C(=O)c2ccc(Cl)cc2)nc2ccccc21,-5,0.65
Cc1ccc2c(CC(=O)N3CCO[C@H]4COCC[C@H]43)c[nH]c2c1,6,-1.12
O=C1NCCOCCN(C(=O)Cc2cccc(F)c2)[C@H]2CCC[C@@H]12,-13,1.85
COc1ccc(F)cc1C(=O)CN1C(=O)NC2(CCCCCCC2)C1=O,-26,3.54
CC1CC(c2nc(C3(C)CCCCO3)no2)CCO1 (stereo unspecified),5,-1.03
Clc1ccc(Cn2ccc(-c3ccc4c(c3)OCO4)n2)cc1Cl,-4,0.51
CCc1ccc(CN2CCC[C@H](CNC(=O)c3ccncn3)C2)nc1,-10,0.95
CC1COCC(C)N1CC(O)COCC1=CCC2CC1C2(C)C (stereo unspecified),-3,0.33
O=C1C[C@@H](c2ccccc2)N(CC2CCCCC2)CCCCCCN1,-6,0.87
CC(C)(C)c1ccnc(N[C@H]2CO[C@H]3[C@@H]2OC[C@@H]3NC(=O)COc2ccccc2)n1,16,-1.87
O=C1CN(c2ccc(Br)cc2)S(=O)(=O)c2ccccc2N1,-7,0.83
O=C(C1CCN(S(=O)(=O)Cc2cccc(Cl)c2)CC1)N1CCN(c2ccccc2)CC1,-2,0.37
CN1CCN(C(=O)c2cnc(-c3cc(Cl)cc(Cl)c3)nc2O)CC1,12,-1.52
Cc1conc1CN1CCN(c2cccc3[nH]cnc23)CC1,-19,2.19

SMILES,% Inhibition [%],Z score
CC(C)(CNC1CCN(c2ccc(-c3cscn3)cc2)CC1)N1CCCC1,-9,1.22
C=C(C)C(C)(C)C(=O)NC1CCC(F)C1 (stereo unspecified),-14,1.9
Cc1cc(N[C@H]2C[C@@H](c3nnc(CN(C)C)n3C)C2)nc(C)c1C#N,-13,2.24
CCCNC(=O)c1c(NC(=O)c2ccc3c(c2)c(C)c(C)n3Cc2ccccc2)cnn1C,36,-5.26
CCc1nc(N2CCC[C@H](CCC(=O)NCc3ccccc3Cl)C2)no1,-3,0.27
Cn1ccc(CCC(=O)N(C)[C@H]2CC[C@H](O)CC2)n1,-8,1.14
Cc1cnccc1CN(C)Cc1cc2n(n1)CCNC2,30,-3.82
Cc1noc(C)c1[C@H](C)NC(=O)CN1CCOc2ccc(Cl)cc21,1,-0.11
Cn1cncc1C(=O)N1CCC(Cc2nc(C(C)(C)C)cs2)CC1,-13,1.83
N#Cc1cc(F)c(NCCOC[C@H]2CCCO2)c(F)c1,-2,0.29
O=C(CCn1cnnc1)N(CCO)Cc1cccs1,-8,0.94
CC(=O)N(C[C@H]1CCCN1C(=O)c1cncc(OC(C)C)c1)C1CC1,1,-0.1
C/C(=C\c1ccccc1)CN1CCN(c2ncccn2)CC1,9,-1.35
CCOC(=O)c1nccc(NC(CO)C(O)C2CCCCC2)n1 (stereo unspecified),-5,0.94
COc1ccc(C(=O)N2CCC3(CC2)OC[C@@H](C(=O)NCc2ccc4c(c2)OCO4)N3C(=O)c2ccccc2)cc1,-11,1.22
COC(=O)[C@@]1(Cc2ccccc2)N[C@@H](c2cccnc2)[C@H]2C(=O)N(C)C(=O)[C@H]21,-4,0.78
COCCOCCOCCCNC(=O)c1cc(F)cc(Br)c1,-8,0.98
CC[C@H](NC(=O)N1CCCC2(CCCCCC2)C1)c1nnc2n1CCCCC2,-23,4.13
O=C(c1ccnnc1)N1CCn2nc(C(=O)N3CCCC3)cc2C1,-2,0.42
CCc1cccc(NC(=O)CN2CCn3nnc(-c4nc(-c5ccccc5)no4)c3C2=O)c1,-15,2.21
O=C(NCCc1ccc(=O)[nH]c1)C1(c2cc(F)cc(F)c2)CCCC1,-2,0.25

SMILES,% Inhibition [%],Z score
O=C(NC1CCCCCC1)c1csnn1,3,-0.31
CC(C)CC1(NC(=O)[C@H]2CCCN(C3CCN(Cc4ccncc4)CC3)C2)CC1,-20,2.16
CN(Cc1ccccc1)C(=O)Cn1cccc1-c1nc(-c2cccc(Cl)c2)no1,1,-0.19
COc1cc2ccc3c(CCN(C)C(=O)c4c(OC)cccc4OC)cc(OC)c(OC)c3c2cc1OC,6,-0.71
CON(C)c1cc(C)nc(-c2cccs2)n1,-6,1.18
O=C(NC1CC1c1ccc(F)cc1)N1CCN(c2ccccc2O)CC1 (stereo unspecified),-7,1.5
Cc1noc(C)c1CCN1CCC[C@H](n2cc(CO)nn2)C1,-4,0.48
O=C(Nc1cccc(S(=O)(=O)N2CCOCC2)c1)c1cc(S(=O)(=O)N2CCCCC2)ccc1Cl,-16,1.6
CCOc1ccc(S(=O)(=O)N2CCN(c3cc(C)nc(N4CCOCC4)n3)CC2)cc1,-12,2.05
CC(C)(C)c1cccc(CN[C@@H]2CC(C(=O)O)C[C@@H]2n2ccnn2)c1 (stereo partly specified),1,-0.1
CCn1nc(C)cc1C(=O)NC[C@H](O)c1ccc(OC(F)F)cc1,-10,1.06
O=C(c1cc(F)c[nH]1)N1CCN(C(=O)c2cc(F)c[nH]2)[C@@H]2CCCC[C@H]21,27,-1.86
Cc1nc(C)c(C(=O)N2CC3CC=CCC3C2)s1 (stereo unspecified),-7,1.06
CO[C@H]1CCCN(C2CCN(c3cccc(-c4cscn4)c3)CC2)C1,1,-0.13
CCOC(=O)CCNC(=O)N1CCC(N2CC3(CCCC3)[C@H]2c2ccccc2)CC1,-2,0.36
O=C(NCc1cc2n(n1)CCCN(Cc1cccc3ccccc13)C2)C1CCC1,-18,1.65
O=C(NCC1(O)CCC1)Nc1ccc(COCc2ccccc2)cc1,1,-0.22
C#CCN(c1nccs1)S(=O)(=O)c1sccc1OC,-9,1.31
COc1ccc(N2CCN(C(=O)C3CC3c3ccco3)CC2)cc1 (stereo unspecified),-6,0.91
Cc1ccc(CN2CCNC(=O)[C@@H]2Cc2nc(-c3cccnn3)no2)cc1,-10,1.84
O=C(c1nnc(-c2ccccc2)o1)C1CC1,-10,1.47

SMILES,% Inhibition [%],Z score
CC(C)(CN)Cc1ccc(Br)cc1,-14,1.9
CC(C)C(O)CNC(=O)C(C)n1ccnc1-c1ccccc1 (stereo unspecified),-1,0.13
O=C(Cc1ccccc1)NCCN1CC[C@H](N2CCCCCC2)C1=O,7,-0.84
C[C@@H]1[C@@H](c2cccc(F)c2)OCCN1C(=O)c1ccc(C(=O)O)cc1,-6,0.97
O=C(c1ccc(C(F)(F)F)cc1O)N1CCCC1C1CCCO1 (stereo unspecified),0,0.02
Cn1cnnc1-c1cncc(NC(=O)[C@H](C2CC2)N2CCCC2)c1,-7,1.08
CNC(=O)Cc1noc(Cc2nc(-c3ccccc3)oc2C)n1,-26,3.11
COc1ccccc1CC(=O)Nc1ccc2c(c1)NC(=O)[C@H](C)O2,-11,2.07
O=S(=O)(Nc1ncn(-c2ccccc2)n1)c1cnc2ccc(F)cc2c1,-45,5.31
Cn1nnc2c(=O)n(Cc3cccc(F)c3)cnc21,-11,1.65
Cc1ccc(-c2nn(C)c(=O)c3c2CCCC3)cc1S(=O)(=O)N1CCN(C)CC1,2,-0.25
C[C@H]1c2ccc(Cl)n2CCN1CC(=O)NCCOc1ccccc1,-10,1.83
CCc1nc(N2CCC[C@H](CCC(=O)Nc3ccc(OC)cc3C)C2)no1,7,-0.84
CN1C[C@@H]2CC[C@H]1CN(S(=O)(=O)c1ccccc1OC(F)(F)F)C2,-2,0.29
CC(c1ccccc1)N1C(=O)c2ccccc2C1c1c[nH]c2ccccc12 (stereo unspecified),43,-5.38
COc1ccc(-c2cc(C(=O)Nc3ccc(N(C)C)cc3)no2)c(F)c1,-13,1.65
O=C(Nc1cccc(C(F)(F)F)c1)c1nscc1NCc1ccncc1,-8,1.04
O=C(NCc1cccnc1)c1coc(CN(Cc2ccccc2F)CC2CC2)n1,-9,1.54
CC(C)n1cnc(C(=O)OCCn2cccn2)c1,7,-0.81
CN1C[C@@H](c2nc(-c3cc(OC(F)F)ccc3F)no2)NCC1=O,-7,1.2
